Here are results for one compound from PubChem BioAssay AID230 (DTP/NCI, 2004).

The test system of this assay is C3H/He mice, Gardner lymphosarcoma 6C3HED ip, survival T/C. Description: NCI In Vivo Anticancer Drug Screen. Data for tumor model Lymphosarcoma Gardner 6C3HED (intraperitoneal) in C3H/He mice. As to conditions: endpoint: median survival time, schedule: Q01DX009 (ip), vehicle: sodium bicarbonate, higher = longer survival. As for the experimental part:
The antitumor activity of compounds was measured in mice bearing transplantable tumors. Survival or tumor size were measured and the results are expressed as the measurement made in the treated group (T) divided by the measurement made in the vehicle treated control group (C). The tumor model used in this assay is Lymphosarcoma Gardner 6C3HED (intraperitoneal) in C3H/He mice

Toxic doses and inconclusive results are not listed. Not every entry of the source has a single result; some have several. This list holds those alone. An entry can have further records. Values given together differ for a reason that is not stated; some may be repeats, others may stem from another dose, organism or construct than stated.

As for `CN(Cc1cnc2nc(N)nc(N)c2n1)c1ccc(C(=O)N[C@@H](CCC(=O)O)C(=O)O)cc1`, the T/C (dose: 0.5 mg/kg/injection) is 108 % of control and 173 % of control; the T/C (dose: 1.0 mg/kg/injection) was 90 % of control, 200 % of control, 307 % of control.
